Where “and” joins values, the source holds several entries; their conditions need not be identical. Identical values can stand only once. The whole screen tested about 390,000 compounds, of which about 4,000 (1%) were called active. Inconclusive results, whose numbers are uncertain, are shown with a selection of clear calls. The call rests on the fitted dose curve; in most records, active means well fitted inhibition curve with a large enough effect; inconclusive means small, poorly fitted or top-dose-only effect; inactive means no such curve, though single readings can be large or run the other way. Where the call is inconclusive, the potency comes from a doubtful curve fit.
biological target: Thioredoxin reductase 1, cytoplasmic (Rattus norvegicus) (UniProt O89049); experiment: qHTS Assay for Inhibitors of Mammalian Selenoprotein Thioredoxin Reductase 1 (TrxR1): qHTS; conditions: recombinant rTrxR1, NADPH fluorescence consumption, selenite substrate; series mostly up to 114 µM; activity change, negative = inhibition: at the top concentration; further: nearly all actives have a fitted effect of over 65% in size
Sequence of UniProt O89049 (O89049 whole entry, looked up): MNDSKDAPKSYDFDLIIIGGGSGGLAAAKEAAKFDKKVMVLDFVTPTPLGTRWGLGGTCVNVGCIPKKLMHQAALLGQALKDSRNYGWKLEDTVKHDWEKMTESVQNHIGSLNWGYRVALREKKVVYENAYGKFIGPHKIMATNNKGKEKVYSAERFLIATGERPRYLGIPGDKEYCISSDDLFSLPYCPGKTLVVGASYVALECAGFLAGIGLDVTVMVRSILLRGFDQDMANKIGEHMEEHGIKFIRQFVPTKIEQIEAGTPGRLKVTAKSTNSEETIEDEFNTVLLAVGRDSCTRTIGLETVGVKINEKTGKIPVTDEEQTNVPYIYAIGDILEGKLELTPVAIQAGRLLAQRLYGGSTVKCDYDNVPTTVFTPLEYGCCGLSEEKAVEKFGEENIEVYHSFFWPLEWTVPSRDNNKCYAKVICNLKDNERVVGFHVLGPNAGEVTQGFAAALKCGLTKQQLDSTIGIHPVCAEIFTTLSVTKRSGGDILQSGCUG
Method in brief: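 Rat TrxR1 (90 nM in the dispensed reagent) was pre-reduced with 400 uM NADPH for 5 min at room temperature, then incubated with compound for 15 min. After 400 uM selenite was added, NADPH fluorescence (Ex 340/Em 450 nm) was followed for 8 min.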
On the % scale 0 is the no-effect control and ±100 the full control effect; potency means the concentration at half of the fitted maximal effect; tags describe the fitted curve by direction and shape.

Structure (SMILES)	Potency	activity change, negative = inhibition
CCC1Sc2ccc(S(=O)(=O)CCC(=O)NCc3ccc(C)o3)cc2NC1=O (configuration not stated)	active: 50.1 µM	–
CCOC(=O)N1CCc2c(sc3[nH]c(=S)[nH]c(=S)c23)C1	inconclusive: 12.6 µM [inhibitor, partial curve, poor fit]	–
CCc1ccccc1NC(=O)c1cccc(NC(=O)/C=C/c2ccco2)c1	inconclusive: 63.1 µM [inhibitor, single point]	–
O=C(/C=C/c1ccco1)NCC1COc2ccccc2O1 (configuration not stated)	active: 15.8 µM	–
COC(=O)c1ccc(OC(=O)c2cnccn2)cc1	inconclusive: 20 µM [inhibitor, full curve]	–
COc1cccc(/C=C/c2ccccn2)c1O	inconclusive: 44.7 µM [inhibitor, partial curve, poor fit]	–
CN(C)c1ccc(CNC(=O)CN2C(=O)CCn3nc(-c4cn(C)c5ccccc45)cc32)cc1	–	inactive: 14.2% [at 57.1 µM]
C(=C\c1ccnc2ccccc12)/c1ccnc2ccccc12	–	inactive: -8.85%
Cc1ccc2nc(SCC(=O)N3CCN(C(=O)c4ccco4)CC3)[nH]c2c1	inconclusive: 89.1 µM [inhibitor, single point]	–
O=C(CSc1nc2ncc(Br)cc2[nH]1)c1ccc([N+](=O)[O-])cc1	inconclusive: 79.4 µM [inhibitor, single point]	–
COc1ccc(Nc2nc(CC(C)=O)ns2)cc1OC	inconclusive: 35.5 µM [inhibitor, single point]	–
Cn1c(Cc2cccs2)nnc1SCC(=O)N1CCCc2ccccc21	inconclusive: 89.1 µM [inhibitor, single point]	–
COc1ccc2c(Sc3ccccc3)c(C(=O)N3CCC(C)CC3)[nH]c2c1	–	inactive: 8.79%
Cc1ccc(/C=C/C(=O)NCc2ccccn2)o1	inconclusive: 39.8 µM [inhibitor, single point]	–
CCCCN=C1N/C(=C\c2ccco2)C(=O)N1c1ccccc1	inconclusive: 50.1 µM [inhibitor, single point]	–
CCc1noc(C)c1C(=O)N(CC)CC(=O)Nc1cc(Cl)ccc1C	inconclusive: 0.891 µM [inhibitor, full curve, poor fit]	–
O=C(NCCN1CCOCC1)c1ccc2c(c1)N(Cc1ccccc1F)C(=O)CS2	inconclusive: 79.4 µM [inhibitor, single point]	–
Cc1ccc(N2CC(C(=O)Nc3nnc(SCCC4OCCO4)s3)CC2=O)cc1C (configuration not stated)	inconclusive: 70.8 µM [inhibitor, partial curve]	–
O=C(Cc1cc(=O)[nH][nH]1)N/N=C/C(Cl)=C/c1ccccc1	inconclusive: 31.6 µM [inhibitor, partial curve, poor fit] and inconclusive: 1.41 µM [inhibitor, full curve]	–
C/C(=N\Nc1cc(C(F)(F)F)ccc1Cl)c1ccncc1	–	inactive: 20.1% [at 57.1 µM]
C[N+](C)(C)c1ccc(/C=N/Nc2nc(Cl)c(C#N)c(Cl)c2Cl)cc1	active: 70.8 µM	–
CC1CCCN(S(=O)(=O)c2ccc([N+](=O)[O-])cc2)C1 (configuration not stated)	–	inactive: -12.4%
CC(C)C(=O)NC(c1cccs1)c1cc([N+](=O)[O-])c2cccnc2c1O (configuration not stated)	inconclusive: 35.5 µM [inhibitor, partial curve]	–

Structure (SMILES)	Potency	activity change, negative = inhibition
COc1ccc2c(CNCc3ccco3)c(C(=O)O)n(Cc3ccccc3)c2c1	inconclusive: 89.1 µM [inhibitor, single point]	–
CCOc1ccccc1OCCCNCc1ccco1	inconclusive: 20 µM [inhibitor, partial curve, poor fit]	–
CCN(CC)CCN1C(=O)C(O)=C(C(C)=O)C1c1ccccc1[N+](=O)[O-] (configuration not stated)	inconclusive: 50.1 µM [inhibitor, partial curve]	–
Cn1c(-c2ccc(C#N)cc2)c(C#Cc2ccccc2)c2ccccc21	inconclusive: 70.8 µM [inhibitor, single point]	–
O=C(c1ccco1)N1CCCC(c2ccccc2)C1 (configuration not stated)	inconclusive: 12.6 µM [inhibitor, single point]	–
CCOC(=O)c1cc(-c2ccco2)nc2c1c(C)nn2-c1cccc(Cl)c1	inconclusive: 44.7 µM [inhibitor, partial curve]	–
CCOC(=O)C(=CNc1ccc(O)c(C(=O)OC)c1)C(=O)OCC	–	inactive: 1.56% [at 57.1 µM]
CCCN1C(=O)/C(=C/c2c(N3CCNC(=O)C3CC(=O)OCC)nc3c(C)cccn3c2=O)SC1=S (configuration not stated)	–	inactive: 4.04% [at 57.1 µM]
O=C(NCc1ccccc1)c1cnc2n(c1=O)CCS2	inconclusive: 0.282 µM [inhibitor, full curve, poor fit]	–
Cc1ccc(C)c(SCc2noc(C(=O)NCC3CCCO3)c2C(=O)O)c1 (configuration not stated)	inconclusive: 20 µM [inhibitor, single point]	–
CC1=CC2=NC(=O)CC(C)(C(=O)N(CC(=O)NC3CCCC3)c3ccccc3F)N2C=C1 (configuration not stated)	–	inactive: -13.9%
O=C1NN(c2cccc(Br)c2)C(=O)/C1=C\c1ccccc1	active: 11.2 µM	–
CCCCNc1c(-c2ccc(SC(C)CC)cc2)nc2cnccn12 (configuration not stated)	inconclusive: 100 µM [inhibitor, single point]	–
CCn1cc(C2C(C(=O)Nc3cc(C)ccn3)=C(C)NC3=C2C(=O)CC(C)(C)C3)c(C)n1 (configuration not stated)	inconclusive: 89.1 µM [inhibitor, single point]	–
COc1ccc(C(=O)NC2CC2)cc1OC1CCN(Cc2ccc(F)cc2Cl)CC1	–	inactive: -3.53%
CCOC(=O)c1c(C)c(C(=O)NCc2ccc(Cl)cc2)c(C)n1CC	–	inactive: 7.78%
CC(=O)NC(=S)Nc1ccc(N2CCOCC2)c(S(=O)(=O)Nc2cc(Cl)ccc2Cl)c1	inconclusive: 70.8 µM [inhibitor, partial curve, poor fit]	–
CC(=O)c1ccc(S(=O)(=O)NCC(=O)N2CCN(C/C=C/c3ccccc3)CC2)cc1	inconclusive: 39.8 µM [inhibitor, single point]	–
CCCc1cc(=O)[nH]c(SCC(=O)Nc2oc(C)c3c(C)n[nH]c(=O)c23)n1	inconclusive: 17.8 µM [inhibitor, partial curve]	–
CC(/C=N/NC(=O)CN1CCN(Cc2ccc(Cl)cc2)CC1)=C\c1ccco1	inconclusive: 56.2 µM [inhibitor, partial curve, poor fit]	–
Cc1cccc(-c2nc(=S)c3c(o2)CCCC3)c1	inconclusive: 56.2 µM [inhibitor, single point]	–
COc1ccc2nc(SCC(=O)N3CC(=O)Nc4ccccc43)c(C#N)cc2c1	–	inactive: -9.05%
CCC(C)(C)NC(=O)C(c1ccc(F)cc1)N(Cc1ccco1)C(=O)c1cnccn1 (configuration not stated)	inconclusive: 3.16 µM [inhibitor, full curve, poor fit]	–

Structure (SMILES)	Potency	activity change, negative = inhibition
NS(=O)(=O)c1ccc(CCNC(=S)Nc2ccc(S(N)(=O)=O)cc2)cc1	inconclusive: 28.2 µM [inhibitor, single point]	–
Cc1nc(NS(=O)(=O)c2ccccc2)sc1C(=O)NN	–	inactive: 25% [at 57.1 µM]
O=C(O)CCSc1ncnc2sc(-c3ccccc3)cc12	inconclusive: 50.1 µM [inhibitor, partial curve]	–
O=[N+]([O-])c1cccc(/C=N/n2c(COc3ccccc3)n[nH]c2=S)c1	inconclusive: 15.8 µM [inhibitor, partial curve, poor fit]	–
CCN(CC)CCNC(=O)c1[nH]c2ccccc2c1Sc1ccc(Cl)cc1	–	inactive: 18.5%
CC1=CC(=O)C(C(C)C)=CC1=NC(=O)c1ccc(C)cc1	inconclusive: 56.2 µM [inhibitor, partial curve, poor fit]	–
Cc1sc2ncnc(N3CCC(C(=O)Nc4ccc(Br)cc4Br)CC3)c2c1C	–	inactive: -2.95%
COc1ccc(CCN(C)C(=O)CCc2nnc(-c3ccccc3)o2)cc1OC	inconclusive: 79.4 µM [inhibitor, partial curve, poor fit]	–
O=C(O)c1ccc(-c2nc3ccccc3[nH]2)cc1	inconclusive: 39.8 µM [inhibitor, single point]	–
CCOP(=O)(OCC)/C(C#N)=C/c1ccc([N+](=O)[O-])cc1	inconclusive: 56.2 µM [inhibitor, partial curve]	–
COC(=O)N/N=C(\C)c1ccccc1OC(F)F	–	inactive: 14.3%
Cc1ccc2c(c1)C(=C(C#N)C#N)C(=O)N2CCN1CCOCC1	inconclusive: 31.6 µM [inhibitor, partial curve]	–
CN(CC(=O)Nc1cccc(F)c1)C(=O)c1ccccc1Cc1ccccc1	–	inactive: -1.99%
C=CCNc1oc(-c2cccc(F)c2)nc1C#N	active: 7.08 µM	–
Nc1c(N(CCO)C(=O)/C=C/c2ccco2)c(=O)[nH]c(=O)n1Cc1ccccc1	active: 20 µM	–
O/C=c1\ccc2cccc3nc(C(F)(F)F)nc1c23	inconclusive: 14.1 µM [inhibitor, partial curve, poor fit]	–
O=C(O)C1=CC(=C(c2ccc(O)c(C(=O)O)c2)c2ccc(O)c(C(=O)O)c2)C=CC1=O	inconclusive: 39.8 µM [inhibitor, partial curve] and inconclusive: 37.7 µM [inhibitor, single point] and inconclusive: 23.8 µM [inhibitor, partial curve]	–
O=C(O)CCc1ccc(-c2cccs2)n1Cc1ccco1	inconclusive: 63.1 µM [inhibitor, single point]	–
CC(C)Oc1cccc(C(=O)NC(=S)Nc2cccnc2)c1	active: 22.4 µM	–
O=C(O)/C=C/C(=O)Nc1ccc(S(=O)(=O)N2CCCC2)cc1	inconclusive: 31.6 µM [inhibitor, partial curve, poor fit]	–
CCCCCCSC1=C(C#N)C(c2ccc(C)o2)CC(=O)N1 (configuration not stated)	inconclusive: 12.6 µM [inhibitor, partial curve]	–

— PubChem BioAssay AID588453 (National Center for Advancing Translational Sciences (NCATS), 2011)
